Measured values: a collection of fitness landscapes (doi:10.1016/j.celrep.2020.107928)
The full ranking holds about 81,000 sequences; the median of “one-hybrid fitness for binding parS DNA” is about -0.17, and the highest 2% start at about 0.51. Some of the results follow.

B1: Caulobacter ParB omega fusion; a variant is named by its letters at X, in order, B8GW30 (parent)
chain: MESVVVGEPGMSEGRRGLGRGLSALLGEVDAAPAQAPGEQLGGSREAPIEILQRNPDQPRRTFREEDLEDLSNSIREKGVLQPILVRPSPDTAGEYQIVAGERAWRAAQRAGLKTVPIMVRELDDLAVLEIGIIENVQRADLNVLEEALSYKVLMEKFERTQENIAQTIGKSXSHVANXMRLLXLPDEVQSYLVSGELTAXHARAIAAAADPVALAKQIIEGGLSVRETEALARKAPNLSAGKSKGGRPPRVKDTDTQALESDLSSVLGLDVSIDHRGSTGTLTITYATLEQLDDLCNRLTRGI

Variants of: B1
Test: one-hybrid fitness for binding parS DNA (scaled: cognate 1, non-cognate 0); higher = stronger binding
Conditions: with parS DNA site
Method in brief: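 Caulobacter ParB libraries with four specificity codons randomised were screened by bacterial one-hybrid selection in the E. coli USO strain, using a HIS3 reporter whose site lies 19 bp from the promoter. Selection ran for 48 hours at 37°C on M9 lacking histidine, with 0.1 mM IPTG and 5 mM 3-AT. Plasmids were Illumina-sequenced before and after selection, three replicate libraries were pooled, and variants with under 10 reads were dropped. Fitness is the log change in each variant's read ratio to wild type, rescaled against the cognate and non-cognate sites.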

Row | Variant | one-hybrid fitness for binding parS DNA
1 | VSQH | ≤ 0.2
2 | QIFS | ≤ 0.2
3 | SREY | ≤ 0.2
4 | TEPN | ≤ 0.2
5 | QIRG | ≤ 0.2
6 | YAKR | ≤ 0.2
7 | PLPG | ≤ 0.2
8 | RQEI | ≤ 0.2
9 | SLFS | ≤ 0.2
10 | TLAE | ≤ 0.2
11 | MLMR | ≤ 0.2
12 | AMWT | ≤ 0.2
13 | SQGV | ≤ 0.2
14 | AWLK | ≤ 0.2
15 | VVGM | ≤ 0.2
16 | TMRW | ≤ 0.2
17 | TTRC | ≤ 0.2
18 | HVEC | ≤ 0.2
19 | SSEC | ≤ 0.2
20 | FGTR | ≤ 0.2
21 | YSMI | ≤ 0.2
22 | VYDV | ≤ 0.2
23 | SPEV | ≤ 0.2
24 | YLLR | ≤ 0.2
25 | QVRH | ≤ 0.2

Row | Variant | one-hybrid fitness for binding parS DNA
26 | CCGG | ≤ 0.2
27 | TYAQ | ≤ 0.2
28 | NSRD | ≤ 0.2
29 | WVNT | ≤ 0.2
30 | AWDD | ≤ 0.2
31 | RAEV | ≤ 0.2
32 | VKAT | ≤ 0.2
33 | ISDS | ≤ 0.2
34 | CPPV | ≤ 0.2
35 | SYIC | ≤ 0.2
36 | QKEG | ≤ 0.2
37 | PLYG | ≤ 0.2
38 | CQTN | ≤ 0.2
39 | KCIG | ≤ 0.2
40 | RAIE | ≤ 0.2
41 | STFI | ≤ 0.2
42 | ECLL | ≤ 0.2
43 | PYTH | ≤ 0.2
44 | ARNY | ≤ 0.2
45 | SLIE | ≤ 0.2
46 | SRWR | ≤ 0.2
47 | CLPE | ≤ 0.2
48 | MEYD | ≤ 0.2
49 | PGTN | ≤ 0.2
50 | VEHR | ≤ 0.2

Row | Variant | one-hybrid fitness for binding parS DNA
51 | FTGC | ≤ 0.2
52 | ISST | ≤ 0.2
53 | CRPS | ≤ 0.2
54 | VHPS | ≤ 0.2
55 | FHAL | ≤ 0.2
56 | SKET | ≤ 0.2
57 | VWNR | ≤ 0.2
58 | HKSF | ≤ 0.2
59 | RILY | 0.483
60 | AFTS | ≤ 0.2
61 | HGHE | ≤ 0.2
62 | WYLS | ≤ 0.2
63 | EGSC | ≤ 0.2
64 | QVNK | ≤ 0.2
65 | ENNV | ≤ 0.2
66 | NLYG | ≤ 0.2
67 | CETD | ≤ 0.2
68 | TILE | ≤ 0.2
69 | QSQN | ≤ 0.2
70 | NSRY | ≤ 0.2
71 | PNSC | ≤ 0.2
72 | TVES | ≤ 0.2
73 | DDMT | ≤ 0.2
74 | NCSR | ≤ 0.2
75 | WTSV | ≤ 0.2

Row | Variant | one-hybrid fitness for binding parS DNA
76 | DNHC | ≤ 0.2
77 | HVPG | ≤ 0.2
78 | MWKS | ≤ 0.2
79 | WWRG | ≤ 0.2
80 | RRLT | 0.623
81 | DELW | ≤ 0.2
82 | CLGC | ≤ 0.2
83 | LRRE | ≤ 0.2
84 | CAYR | ≤ 0.2
85 | PMVV | ≤ 0.2
86 | IENI | ≤ 0.2
87 | SWTH | ≤ 0.2
88 | NPYA | ≤ 0.2
89 | YSIV | ≤ 0.2
90 | EQRE | ≤ 0.2
91 | RPHI | ≤ 0.2
92 | KMFC | ≤ 0.2
93 | EPAI | ≤ 0.2
94 | LLNH | ≤ 0.2
95 | GGSR | ≤ 0.2
96 | CPPN | ≤ 0.2
97 | YVIG | ≤ 0.2
